B1: glmS ribozyme (parent)
chain: AUAAAAGCGCCAGAACUACAGAAAUGUAGUUGACGAGGAGGAGGUUUAUCGAAUUUUCGGCGGAUGCCUCCAAA

± gives the standard error. Variants at the background level are over-represented here.

The variants in the first series derive from B1. In words: self-cleavage kobs at 160 uM GlcN6P; higher = faster cleavage; RNA array. As to conditions: with glucosamine-6-phosphate. The procedure, abridged:
(§1)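 Tracking of barcoded ribozyme variants used a hybridised Cy3 probe at 37 °C, after in situ transcription by E. coli RNA polymerase on sequenced MiSeq chips. The flowed solution held 40 μM to 10 mM glucosamine-6-phosphate in HEPES/KCl/Mg(OAc)2 buffer, and imaging ran over ~14 h. kobs was taken from exponential decay fits of normalised per-tile medians, and kcat and KM from weighted Michaelis–Menten fits.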
G32C U54A: the “self-cleavage kobs at 160 uM GlcN6P” value is < 1e-05 s⁻¹.
Regarding G35A C67G C70A C71G, the “self-cleavage kobs at 160 uM GlcN6P” value was < 1e-05 s⁻¹.
G38C C70U C71U: the “self-cleavage kobs at 160 uM GlcN6P” value is < 1e-05 s⁻¹.
With G41U G63A C71U, the “self-cleavage kobs at 160 uM GlcN6P” value was < 1e-05 s⁻¹.
Turning to C67U C68U C71G, the “self-cleavage kobs at 160 uM GlcN6P” value was found to be 7.37e-05 ± 2e-05 s⁻¹.
On to A42C C50U C58G, for which the “self-cleavage kobs at 160 uM GlcN6P” value is < 1e-05 s⁻¹.
With U49A A64G, the “self-cleavage kobs at 160 uM GlcN6P” value was < 1e-05 s⁻¹.
For U45A C67A C68G, the “self-cleavage kobs at 160 uM GlcN6P” value was < 1e-05 s⁻¹.
On to U45G A52U A53G, for which the “self-cleavage kobs at 160 uM GlcN6P” value is < 1e-05 s⁻¹.
Take G32C A39U: the “self-cleavage kobs at 160 uM GlcN6P” value is < 1e-05 s⁻¹.
As to A33U G51U C58U, the “self-cleavage kobs at 160 uM GlcN6P” value was < 1e-05 s⁻¹.
Turning to A39G C50G, the “self-cleavage kobs at 160 uM GlcN6P” value came to 0.000247 ± 0.00011 s⁻¹.
The same measure, in the same setting: the result for G35C U69A reads < 1e-05 s⁻¹; that for A33U, < 1e-05 s⁻¹.
With A33U G62U, the “self-cleavage kobs at 160 uM GlcN6P” value is < 1e-05 s⁻¹.

Another series covers variants of B1. The experiment in a line: self-cleavage kobs at 2500 uM GlcN6P; higher = faster cleavage; RNA array. The conditions noted are these: with glucosamine-6-phosphate. The procedure, abridged:
as §1
Take G9U A12G A33C G35U C71A: the “self-cleavage kobs at 2500 uM GlcN6P” value is < 1e-05 s⁻¹.
The same measure, in the same setting: to C10A G29A A33G A48U belongs < 1e-05 s⁻¹; to G9A A14C A15G G35C A39G A52C A53G, < 1e-05 s⁻¹.
As for C8U C34A U46A, the “self-cleavage kobs at 2500 uM GlcN6P” value was < 1e-05 s⁻¹.
As to G9C A33C A36G A39G, the “self-cleavage kobs at 2500 uM GlcN6P” value is < 1e-05 s⁻¹.
C8U C58U C67U U69C: the “self-cleavage kobs at 2500 uM GlcN6P” value was < 1e-05 s⁻¹.
As for C11U A15U G41C, the “self-cleavage kobs at 2500 uM GlcN6P” value is < 1e-05 s⁻¹.
Still for that read-out and setting: the result for A6U G40C C70G reads < 1e-05 s⁻¹.
In the case of A6U G13A A48G, the “self-cleavage kobs at 2500 uM GlcN6P” value was < 1e-05 s⁻¹.
Take G7A G63A: the “self-cleavage kobs at 2500 uM GlcN6P” value was < 1e-05 s⁻¹.
For the variant C11A U54A U55G, the “self-cleavage kobs at 2500 uM GlcN6P” value came out at 0.000135 ± 4.1e-05 s⁻¹.
On the same count and under the same terms, the result for A6U G37A C58U reads < 1e-05 s⁻¹; that for C10U A48C C58G, < 1e-05 s⁻¹.
For G9U A36G G51C A64G, the “self-cleavage kobs at 2500 uM GlcN6P” value was < 1e-05 s⁻¹.
On the same count and under the same terms, to C10A A42U U47A A53C belongs < 1e-05 s⁻¹; to C11U G44C U54A U69C, < 1e-05 s⁻¹; to C8U A36U A42U G43A G62U A64U, < 1e-05 s⁻¹.
Regarding A6G C10U G35C U49C, the “self-cleavage kobs at 2500 uM GlcN6P” value is < 1e-05 s⁻¹.
Consider C11U C34G A52U, for which the “self-cleavage kobs at 2500 uM GlcN6P” value was < 1e-05 s⁻¹.
The same measure, in the same setting: to C8G G29U A36C A48G C70U belongs < 1e-05 s⁻¹; to A6U G13A U49C, < 1e-05 s⁻¹.
Consider C8G G9C G35A G62C, for which the “self-cleavage kobs at 2500 uM GlcN6P” value is < 1e-05 s⁻¹.
In the case of A12C G29U G32C U46A, the “self-cleavage kobs at 2500 uM GlcN6P” value was < 1e-05 s⁻¹.
As to C10A C11A A36G, the “self-cleavage kobs at 2500 uM GlcN6P” value was < 1e-05 s⁻¹.
Turning to C11G G38U C71A, the “self-cleavage kobs at 2500 uM GlcN6P” value was < 1e-05 s⁻¹.
With C11G A15C G32U C71U, the “self-cleavage kobs at 2500 uM GlcN6P” value is < 1e-05 s⁻¹.
Regarding G9U U54C G62C, the “self-cleavage kobs at 2500 uM GlcN6P” value was < 1e-05 s⁻¹.
Same read-out and setting: the result for G9C U45G C50U G59U reads < 1e-05 s⁻¹; that for C10U U30A G38C, < 1e-05 s⁻¹.
For C8U C34U G63C, the “self-cleavage kobs at 2500 uM GlcN6P” value was < 1e-05 s⁻¹.
As to G7C A42G C50A U54G, the “self-cleavage kobs at 2500 uM GlcN6P” value was < 1e-05 s⁻¹.
As to C8A C58A A64C, the “self-cleavage kobs at 2500 uM GlcN6P” value is < 1e-05 s⁻¹.
On the same count and under the same terms, the result for G7U G38C G43C A64U U69G reads < 1e-05 s⁻¹.
Still for that read-out and setting: to A12C A36G G44C U54A belongs < 1e-05 s⁻¹; to A12C G32C G43C, < 1e-05 s⁻¹; to G9C A42G C68G, < 1e-05 s⁻¹.
For C8G U31C A33C U46G G60A, the “self-cleavage kobs at 2500 uM GlcN6P” value is < 1e-05 s⁻¹.
As to A6C A14G G41A C68U, the “self-cleavage kobs at 2500 uM GlcN6P” value is < 1e-05 s⁻¹.
Turning to C8U A15U C34U G60A, the “self-cleavage kobs at 2500 uM GlcN6P” value was < 1e-05 s⁻¹.
Take C11U G29U A42C: the “self-cleavage kobs at 2500 uM GlcN6P” value is < 1e-05 s⁻¹.
As to G7C A15G G38A A39G C50A, the “self-cleavage kobs at 2500 uM GlcN6P” value was < 1e-05 s⁻¹.
For the variant C8A G13U U30C, the “self-cleavage kobs at 2500 uM GlcN6P” value is < 1e-05 s⁻¹.
For G9U G29A A33U, the “self-cleavage kobs at 2500 uM GlcN6P” value is < 1e-05 s⁻¹.
Take G7U G41A A64U: the “self-cleavage kobs at 2500 uM GlcN6P” value was < 1e-05 s⁻¹.
For the variant C11U A48G A52U, the “self-cleavage kobs at 2500 uM GlcN6P” value is < 1e-05 s⁻¹.
G7A G29U U65C: the “self-cleavage kobs at 2500 uM GlcN6P” value was < 1e-05 s⁻¹.
With G9U G32A G43A, the “self-cleavage kobs at 2500 uM GlcN6P” value is < 1e-05 s⁻¹.
For G9C A48G A64U, the “self-cleavage kobs at 2500 uM GlcN6P” value was < 1e-05 s⁻¹.
In the case of C8G G29C G38C U57C, the “self-cleavage kobs at 2500 uM GlcN6P” value is < 1e-05 s⁻¹.
A6C G7A G66C: the “self-cleavage kobs at 2500 uM GlcN6P” value was < 1e-05 s⁻¹.
The same measure, in the same setting: to C10A G37A A53C belongs < 1e-05 s⁻¹.
For C8G A14U U31A G41A U49G, the “self-cleavage kobs at 2500 uM GlcN6P” value was < 1e-05 s⁻¹.
On to A6U A12C A33U G44A G63U, for which the “self-cleavage kobs at 2500 uM GlcN6P” value was < 1e-05 s⁻¹.
Turning to A6G U45G G62U U65G, the “self-cleavage kobs at 2500 uM GlcN6P” value was < 1e-05 s⁻¹.
For the variant G7C C8G A48G U54C C67A, the “self-cleavage kobs at 2500 uM GlcN6P” value was < 1e-05 s⁻¹.
For C8U G9U G13A G37A G41A, the “self-cleavage kobs at 2500 uM GlcN6P” value was < 1e-05 s⁻¹.
Consider A6G U55C C71A, for which the “self-cleavage kobs at 2500 uM GlcN6P” value is < 1e-05 s⁻¹.
For C8U C11A G32A A48U, the “self-cleavage kobs at 2500 uM GlcN6P” value was < 1e-05 s⁻¹.
With G7U A36U U47G C61U U69G, the “self-cleavage kobs at 2500 uM GlcN6P” value was < 1e-05 s⁻¹.
As for G7A C34U G40U C67U, the “self-cleavage kobs at 2500 uM GlcN6P” value was < 1e-05 s⁻¹.
C8A C11A U57C: the “self-cleavage kobs at 2500 uM GlcN6P” value was < 1e-05 s⁻¹.
Consider G7U A36C U57G G62C, for which the “self-cleavage kobs at 2500 uM GlcN6P” value is < 1e-05 s⁻¹.
The same measure, in the same setting: the result for G9U U57C U65C reads < 1e-05 s⁻¹; that for G35C U69A, < 1e-05 s⁻¹.
Take C10U C67G C68U: the “self-cleavage kobs at 2500 uM GlcN6P” value was 0.000126 ± 4.8e-05 s⁻¹.
G9A G29C G37U A48G A52C C70G: the “self-cleavage kobs at 2500 uM GlcN6P” value is < 1e-05 s⁻¹.
With C11U A36G G37A, the “self-cleavage kobs at 2500 uM GlcN6P” value is < 1e-05 s⁻¹.
Regarding G9A A52G G62A, the “self-cleavage kobs at 2500 uM GlcN6P” value was < 1e-05 s⁻¹.
Turning to G9A U30A, the “self-cleavage kobs at 2500 uM GlcN6P” value was < 1e-05 s⁻¹.
As for C11G G26U G43C, the “self-cleavage kobs at 2500 uM GlcN6P” value is < 1e-05 s⁻¹.
In the case of A6U G7A A14U G35A U54A, the “self-cleavage kobs at 2500 uM GlcN6P” value is < 1e-05 s⁻¹.
Still for that read-out and setting: to A33U G62U belongs < 1e-05 s⁻¹.

The variants in a further series derive from B1. In words: self-cleavage kobs at 10000 uM GlcN6P; higher = faster cleavage; RNA array. The conditions noted are these: with glucosamine-6-phosphate. The procedure, abridged: as §1
G7A G63A: the “self-cleavage kobs at 10000 uM GlcN6P” value was < 1e-05 s⁻¹.
On to C11A U54A U55G, for which the “self-cleavage kobs at 10000 uM GlcN6P” value stood at 0.000124 ± 1.8e-05 s⁻¹.
With C11U C34G A52U, the “self-cleavage kobs at 10000 uM GlcN6P” value was < 1e-05 s⁻¹.
C8U A15U C34U G60A: the “self-cleavage kobs at 10000 uM GlcN6P” value was < 1e-05 s⁻¹.
Consider A33U G62U, for which the “self-cleavage kobs at 10000 uM GlcN6P” value is < 1e-05 s⁻¹.
